Test results reported in the supplement of paper PMC4604168 (melanoma cell lines).
The other results are listed elsewhere or left out. Many values rest on one well or one pass, so single values are uncertain.

tested on: WM115; assay: cell count relative to DMSO control; melanoma cells; higher = more viable cells; settings: library dose: low library concentration; 72 h
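Note: cell number obtained by counting DAPI-stained nuclei in high-throughput microscope images with image analysis software, screen run in 1,536-well plates.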

Structure (SMILES)	cell count [%]
COCC[n+]1c2c(n(Cc3cnccn3)c1C)C(=O)c1ccccc1C2=O + COc1cc2c(Oc3ccc4[nH]c(C)cc4c3F)ncnc2cc1OCCCN1CCCC1 [cediranib] (first compound 0.0004 µM, partner dose 0.4 µM)	104
O=C(CCCCCCC(=O)Nc1ccccc1)NO [vorinostat] + COc1ccc(COc2ccc(Cc3cnc(N)nc3N)cc2OC)cc1 [GW2580] (first compound 0.08 µM, partner dose 1 µM)	99.2
C#Cc1cccc(Nc2ncnc3cc(OCCOC)c(OCCOC)cc23)c1 [erlotinib] + O=C(O)C(=O)Nc1sc2c(c1C(=O)O)CCNC2 [TCS401] (first compound 0.8 µM, partner dose 1.66667 µM)	84.9
Cn1c(Nc2ccc(C(F)(F)F)cc2)nc2cc(Oc3ccnc(-c4ncc(C(F)(F)F)[nH]4)c3)ccc21 + COC(=O)c1sccc1S(=O)(=O)Nc1ccc(Nc2ccccc2)cc1OC [GSK0660] (first compound 0.08 µM, partner dose 1 µM)	49.8
COCC[n+]1c2c(n(Cc3cnccn3)c1C)C(=O)c1ccccc1C2=O + Nc1cccc2c1CN(C1CCC(=O)NC1=O)C2=O [lenalidomide] (first compound 0.0004 µM, partner dose 1 µM)	78.9
Cn1c(Nc2ccc(C(F)(F)F)cc2)nc2cc(Oc3ccnc(-c4ncc(C(F)(F)F)[nH]4)c3)ccc21 + COCC[n+]1c2c(n(Cc3cnccn3)c1C)C(=O)c1ccccc1C2=O [YM155] (first compound 0.08 µM, partner dose 0.0004 µM)	52.7
